Our source for the AQP5-HiBiT luminescence values is the supplement of paper PMC8821664.

Counter-ions that a name gives are not always drawn. This is one part of the list. Many values rest on one well or one pass, so single values are uncertain.
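Note: monoclonal Beas-2B line stably carrying CMV promoter-driven AQP5-HiBiT, 5,000 cells per well in 384-well plates, lytic HiBiT plus LgBiT NanoLuc luminescence, FDA-approved drug library screen.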

The experiment has as its system Beas-2B AQP5-HiBiT reporter cells. Briefly: AQP5-HiBiT luminescence relative to vehicle (ratio to vehicle); higher = higher AQP5-HiBiT protein abundance. To be noted: 10 µM; 18 h.
Consider `COc1ncnc(NS(=O)(=O)c2ccc(N)cc2)c1OC` [Sulfadoxine], for which the AQP5-HiBiT luminescence was determined as 1.05.
Regarding `CN(C)CC(c1ccc(O)cc1)C1(O)CCCCC1` (configuration not stated) [Desvenlafaxine], the AQP5-HiBiT luminescence was determined as 0.888.
For `Cc1onc(-c2ccccc2)c1-c1ccc(S(N)(=O)=O)cc1` [Valdecoxib] the value was 0.823.
With `CC(C)(C#N)c1cc(Cn2cncn2)cc(C(C)(C)C#N)c1` [Anastrozole], the AQP5-HiBiT luminescence came to 0.622.
For `Cc1nnc(C(=O)NC(C)(C)c2nc(C(=O)NCc3ccc(F)cc3)c(O)c(=O)n2C)o1` [Raltegravir potassium] the value was 0.692; for `CO[C@@]1(NC(=O)CSCC#N)C(=O)N2C(C(=O)O)=C(CSc3nnnn3C)CS[C@@H]21` [Cefmetazole sodium], 1.36; for `CC(CN(C)C)CN1c2ccccc2CCc2ccccc21` (configuration not stated) [Trimipramine maleate], 1.21.
The same measure for `NC(=O)NO` [Hydroxyurea]: 0.9.
The same measure for `CC(C)C(=O)Nc1ccc([N+](=O)[O-])c(C(F)(F)F)c1` [Flutamide]: 0.977; for `Cc1cn[nH]c1` [4-Methylpyrazole]: 0.643; for `C[C@@H]1O[C@@H]1P(=O)(O)O` [Fosfomycin calcium]: 0.744.
As for `COc1ccccc1OCC(O)CN1CCN(CC(=O)Nc2c(C)cccc2C)CC1` (configuration not stated) [Ranolazine 2hydrochloride], the AQP5-HiBiT luminescence worked out at 1.32.
The same measure for `CC(C(=O)O)c1cccc(C(=O)c2ccccc2)c1` (configuration not stated) [Ketoprofen]: 1.06.
For `CN1CCN(CCCN2c3ccccc3Sc3ccc(Cl)cc32)CC1` [Prochlorperazine Maleate] the value was 1.63; for `CC(=O)c1ccc2c(c1)N(CCCN1CCC(CCO)CC1)c1ccccc1S2` [Piperacetazine], 3.04.
Take `CCc1c2c(nc3ccc(OC(=O)N4CCC(N5CCCCC5)CC4)cc13)-c1cc3c(c(=O)n1C2)COC(=O)[C@]3(O)CC` [Irinotecan]: the AQP5-HiBiT luminescence came to 0.429.
For `CCN(CC)C(=O)Nc1ccc(OCC(O)CNC(C)(C)C)c(C(C)=O)c1` (configuration not stated) [Celiprolol hydrochloride] the value was 0.595.
Consider `CCCNS(=O)(=O)Nc1ncnc(OCCOc2ncc(Br)cn2)c1-c1ccc(Br)cc1` [Macitentan], for which the AQP5-HiBiT luminescence was determined as 0.669.
For `CN(C/C=C/c1ccccc1)Cc1cccc2ccccc12` [Naftifine hydrochloride] the value was 0.708; for `CCC(Cc1c(I)cc(I)c(N)c1I)C(=O)O` (configuration not stated) [Iopanoic acid], 1.
The same measure for `CC(=O)[C@H]1CC[C@H]2[C@@H]3C[C@H](C)C4=CC(=O)CC[C@]4(C)[C@H]3[C@@H](O)C[C@]12C` [Medrysone]: 0.668; for `CC1(C)S[C@@H]2[C@H](NC(=O)C(C(=O)O)c3ccccc3)C(=O)N2[C@H]1C(=O)O` (some centres not stated) [Carbenicillin disodium]: 1.09; for `CC(=O)N[C@H]1[C@H]([C@H](O)[C@H](O)CO)OC(C(=O)O)=C[C@@H]1NC(=N)N` [Zanamivir]: 0.642.
The same measure for `CC1(C)S[C@@H]2[C@H](NC(=O)COc3ccccc3)C(=O)N2[C@H]1C(=O)O` [Penicillin V potassium salt]: 0.952; for `COc1ccc(Cl)cc1C(=O)NCCc1ccc(S(=O)(=O)NC(=O)NC2CCCCC2)cc1` [Glyburide]: 0.888.
On to `NCc1ccc(S(N)(=O)=O)cc1` [Mafenide hydrochloride], for which the AQP5-HiBiT luminescence was 0.876.
For `NS(=O)(=O)c1cc2c(cc1C(F)(F)F)NC(Cc1ccccc1)NS2(=O)=O` (configuration not stated) [Bendroflumethiazide] the value was 1.89; for `Cc1nccn1CC1CCc2c(c3ccccc3n2C)C1=O` (configuration not stated) [Ondansetron hydrochloride], 0.866.
Turning to `CCCCC(O)c1ccccc1` (configuration not stated) [Fenipentol], the AQP5-HiBiT luminescence came out at 1.09.
The same measure for `O=C([O-])/C=C/C(=O)[O-].[Fe+2]` [Ferrous fumarate]: 0.663; for `N#CCC(C1CCCC1)n1cc(-c2ncnc3[nH]ccc23)cn1` (configuration not stated): 0.559; for `CC(C)[N+](C)(CCOC(=O)C1c2ccccc2Oc2ccccc21)C(C)C` [Propantheline bromide]: 0.829.
